Source: PubChem BioAssay AID1476 (National Center for Advancing Translational Sciences (NCATS), 2009)
Screen size: about 200,000 compounds; about 4,500 (2.2%) were called active. Inconclusive means that the source gave no clear call. Such entries were picked first, then a sample of the others. Calls come from the whole dose curve; as a rule, active = well fitted inhibition curve with a large enough effect; inconclusive = small, poorly fitted or top-dose-only effect, or effect the other way; inactive = flat fitted curve, though single readings scatter. Where the call is inconclusive, the potency comes from a doubtful curve fit.

biological target: Cruzipain (Trypanosoma cruzi) (UniProt P25779); experiment: qHTS Assay for Promiscuous and Specific Inhibitors of Cruzain (without detergent); conditions: purified cruzain, Z-FR-AMC fluorescence, no detergent; note: nearly all actives have a fitted effect of over 40% in size;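 for max response, negative = inhibition: plate controls were enzyme without inhibitor for no effect and buffer without enzyme for full effect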
Outline: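 Purified cruzain at 1.5 nM, pre-incubated 15 min with compound at room temperature in 100 mM sodium acetate pH 5.5, 5 mM DTT, 0.00005% Triton X-100. Reaction started with 2 uM Z-FR-AMC; AMC fluorescence increase over 60 s gives rate.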
Potency is the fitted concentration of half-maximal effect; tags give direction and shape of the fitted curve.

Sequence of UniProt P25779 (P25779 whole entry, looked up): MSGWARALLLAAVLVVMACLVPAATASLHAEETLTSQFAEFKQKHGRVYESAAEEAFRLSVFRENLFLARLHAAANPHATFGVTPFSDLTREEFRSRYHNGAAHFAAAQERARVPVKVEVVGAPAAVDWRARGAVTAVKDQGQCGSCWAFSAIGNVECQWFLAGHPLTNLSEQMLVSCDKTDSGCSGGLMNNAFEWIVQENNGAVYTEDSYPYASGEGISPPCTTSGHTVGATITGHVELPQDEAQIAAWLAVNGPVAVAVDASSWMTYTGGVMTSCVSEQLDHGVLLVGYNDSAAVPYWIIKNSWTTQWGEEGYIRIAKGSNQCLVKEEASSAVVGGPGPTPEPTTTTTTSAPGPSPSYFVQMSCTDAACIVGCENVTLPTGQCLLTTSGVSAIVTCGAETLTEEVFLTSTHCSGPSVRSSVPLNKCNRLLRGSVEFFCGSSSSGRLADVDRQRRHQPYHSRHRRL

| Compound | Potency | max response, negative = inhibition |
| --- | --- | --- |
| CC(=O)OC1CC(OC(C)=O)[C@]2(C)C(CC(=O)[C@]3(C)C2CC[C@@]2(C)C(c4ccoc4)OC(=O)C4O[C@@]423)C1(C)C (some centres not stated) | inconclusive: 39.8 µM [activator, single point] | – |
| Clc1nc(-c2n[nH]nc2Cl)n[nH]1 | inconclusive: 15.8 µM [inhibitor, partial curve] | – |
| O=C(CSc1nc2cc(Cl)ccc2s1)c1cc2ccccc2o1 | inconclusive: 25.1 µM [inhibitor, single point] | – |
| Nc1nc(SCC(=O)c2ccc(Br)cc2)c2[nH]cnc2n1 | – | inactive: -9.25% |
| O=C1CC(N2CCN(c3ccc(F)cc3)CC2)C(=O)N1Cc1ccc(N2CCCC2=O)cc1 (configuration not stated) | inconclusive: 39.8 µM [activator, single point] | – |
| CC(C)OCCCn1c(=O)c2ccccc2n2c(-c3ccccc3)nnc12 | – | inactive: 27.1% |
| CC#C[C@]1(O)CC[C@H]2[C@@H]3CCC4=CC(=O)CCC4=C3[C@H](c3ccc(N(C)C)cc3)C[C@@]21C | inconclusive: 39.8 µM [activator, single point] | – |
| N#Cc1ccccc1Cn1c(=O)n(Cc2ccc(C(=O)NCc3ccco3)cc2)c(=O)c2sccc21 | inconclusive: 39.8 µM [inhibitor, single point] | – |
| CC(=O)c1ccc(N2C(=O)N(CC(=O)c3ccc(C)cc3)c3ccccc3S2(=O)=O)cc1 | inconclusive: 31.6 µM [inhibitor, single point] | – |
| Cc1ccc2nc(-c3ccc(NC(=O)COc4ccccc4)cc3)sc2c1 | inconclusive: 3.16 µM [inhibitor, single point] | – |
| CCN(c1cccc(C)c1)S(=O)(=O)c1nnc(NC(=O)c2ccccc2Cl)s1 | – | inactive: -1.27% |
| COc1ccc(CNC(=O)c2cc(Nc3ccc(C)cc3C)nc3ccccc23)cc1 | – | inactive: 9.02% |
| CCOC(=O)C1C(=O)C=C(c2ccc([N+](=O)[O-])cc2)CC1c1ccccc1 (configuration not stated) | inconclusive: 31.6 µM [inhibitor, single point] | – |
| N#CC1=C(N)C(C#N)(C#N)[C@H](c2cccnc2)[C@H]2CN(C(=O)OCc3ccccc3)CC=C12 | inconclusive: 31.6 µM [activator, single point] | – |
| Nc1c(-c2cccc([N+](=O)[O-])c2)nc2ccccn12 | active: 20 µM | – |
| COc1ccc(-c2nc(NC(=O)c3ccccc3)sc2-c2ccc([N+](=O)[O-])cc2)cc1 | active: 7.94 µM | – |
| CN(CC(=O)Nc1ccc(N2CCOCC2)cc1)CC(=O)Nc1ccc(Cl)cc1[N+](=O)[O-] | inconclusive: 39.8 µM [activator, single point] | – |
